Measured values reported in patent US10654893B2, “Self-assembling peptide compositions” (3-D MATRIX, LTD., priority 2014, dated 2020).
Not every detail of the peptide structures is certain; ends, links or a residue may be inferred. Some entries share one result that the patent states for a list of compounds. Where a SMILES comes first, the peptide text is derived from it.

Experiments:
Assay type in all cases: physicochemical
[1] = Visual observation of peptide compositions with selected salts (cloud point, critical ionic strength); settings: for Observation: room temperature; for Conc. at cloud point / Ionic strength at cloud point: visual observation of solubility
Procedure: Visual observations of RADA16 (SEQ ID NO:1), KLD12 (SEQ ID NO:2), and IEIK13 (SEQ ID NO:3) compositions with selected salts (e.g. KCl, MgCl2, CaCl2) are summarized in Tables 7-9. […] Apparent stiffness of RADA16 (SEQ ID NO:1), KLD12 (SEQ ID NO:2) and IEIK13 (SEQ ID NO:3) compositions was increased with increased ionic strength.
Critical ion strengths were determined from the visual observations recorded in Tables 7-9. When the ionic strengths of peptide compositions were higher than 0.9 M (RADA16 (SEQ ID NO:1)), 0.3 M (KLD12 (SEQ ID NO:2)) or 0.03 M (IEIK13 (SEQ ID NO:3)), the peptide compositions began phase separation. 0.9 M, 0.3 M and 0.03 M may represent critical ion strengths for RADA16 (SEQ ID NO:1), KLD12 (SEQ ID NO:2) and IEIK13 (SEQ ID NO:3), respectively.

[2] = Rheometer stress sweep test of peptide compositions at selected concentrations (AR500, 40 mm plates); settings: 37° C.; for Loss Modulus (G″) / Storage Modulus (G′): at 1 Pa of oscillation stress, 10 rad/s; for Max. Viscosity (max η′): maximum in range of measured stress; for Yield Stress: stress sweep 10 rad/s
Procedure: The present Example further describes measurement of various rheological properties of certain peptide compositions at selected concentrations using a rheometer (AR500, TA Instruments) with 40 mm plates. A peptide composition (700 μL) was placed on the rheometer plate and excess composition was gently removed by Kimwipes. Measurements were performed after 2 minutes of relaxation time at 37° C. Storage modulus, loss modulus, and viscosity (η′) were measured at 37° C. with the plates placed at a measuring geometry gap of 300 μm, and stress sweep tests were performed at 0.1 Pa˜1000 Pa of oscillation stress with angular frequency at 10 rad/s.
Results are shown in FIGS. 2-4 for RADA16 (SEQ ID NO:1), IEIK13 (SEQ ID NO:3), and KLD12 (SEQ ID NO:2).

[3] = pH adjustment with 0.1 N NaOH, pH and visual observation
Procedure: In this Example, pH levels of peptide compositions was adjusted, for example, by addition of 0.1 N NaOH to 2 mL of a 2.5% peptide composition. pH and appearance of the adjusted compositions were observed. An acidic salt was added if the pH level was higher than the desired level.
With certain compositions, when pH levels of peptide compositions were higher than 3.5 (RADA16 (SEQ ID NO:1) and KLD12 (SEQ ID NO:2)) or 3.7 (IEIK13 (SEQ ID NO:3)), the peptide compositions began phase separation (i.e. becoming cloudy). In some embodiments, provided peptide compositions have a pH within the range of about 3.0 to about 3.7 (particularly for IEIK13 (SEQ ID NO:3)), or about 3.0 to about 3.5 (particularly for RADA16 (SEQ ID NO:1) and/or KLD12 (SEQ ID NO:2)).

[4] = Congo Red assay of gel formation in PBS solution (pH 7.4); settings: 0.5%, 1.0%, 1.5%, 2.0% and 2.5%
Procedure: A Congo Red assay was performed to determine gel formation of peptide compositions in a PBS (Phosphate buffered saline) solution (pH 7.4), as shown in FIG. 1. 100 μl of each gel at selected concentrations were plated on a glass slide. After 30 seconds, 500 μl of 1% Congo Red solution was added around and on top of each of the composition aliquots and then the excess Congo Red solution was wiped off prior to examination. RADA16 (SEQ ID NO:1), IEIK13 (SEQ ID NO:3), and KLD12 (SEQ ID NO:2) were plated at selected concentrations of 0.5%, 1.0%, 1.5%, 2.0% and 2.5%. Visual observation determined the success or failure of gelation at each concentration.

CC(C)C[C@H](NC(=O)[C@H](CC(=O)O)NC(=O)[C@H](CC(C)C)NC(=O)[C@H](CCCCN)NC(=O)[C@H](CC(C)C)NC(=O)[C@H](CC(=O)O)NC(=O)[C@H](CC(C)C)NC(=O)[C@H](CCCCN)NC(=O)[C@H](CC(C)C)NC(=O)[C@H](CC(=O)O)NC(=O)[C@H](CC(C)C)NC(=O)[C@@H](N)CCCCN)C(N)=O [KLD12, Lys-Leu-Asp-Leu-Lys-Leu-Asp-Leu-Lys-Leu-Asp-Leu] (H-KLDLKLDLKLDL-NH2)
Observation ([1]; KLD12 1.3%, KCl 0.4 M, ionic strength 0.4 M): Cloudy, phase-separated | Observation ([1]; KLD12 1.3%, NaCl 0.4 M, ionic strength 0.4 M): Cloudy, phase-separated | Observation ([1]; KLD12 1.32%, KCl 0.35 M, ionic strength 0.35 M): Slightly cloudy, brittle gel | Observation ([1]; KLD12 1.32%, NaCl 0.35 M, ionic strength 0.35 M): Slightly cloudy, brittle gel | Observation ([1]; KLD12 1.35%, KCl 0.3 M, ionic strength 0.3 M): Slightly cloudy, thick, | Observation ([1]; KLD12 1.35%, NaCl 0.3 M, ionic strength 0.3 M): Slightly cloudy, thick, | Observation ([1]; KLD12 1.38%, KCl 0.25 M, ionic strength 0.25 M): Clear, thick, stiffer gel | Observation ([1]; KLD12 1.38%, NaCl 0.25 M, ionic strength 0.25 M): Clear, thick, stiffer gel | Observation ([1]; KLD12 1.4%, KCl 0.2 M, ionic strength 0.2 M): Clear, thick, stiffer gel | Observation ([1]; KLD12 1.4%, NaCl 0.2 M, ionic strength 0.2 M): Clear, thick, stiffer gel | Observation ([1]; KLD12 1.42%, CaCl2 0.167 M, ionic strength 0.5 M): Cloudy, phase-separated | Observation ([1]; KLD12 1.42%, MgCl2 0.167 M, ionic strength 0.5 M): Cloudy, phase-separated | Observation ([1]; KLD12 1.43%, CaCl2 0.133 M, ionic strength 0.4 M): Slightly cloudy, thick, | Observation ([1]; KLD12 1.43%, CaCl2 0.15 M, ionic strength 0.45 M): Slightly cloudy, brittle gel | Observation ([1]; KLD12 1.43%, KCl 0.15 M, ionic strength 0.15 M): Clear, thick, stiffer gel | Observation ([1]; KLD12 1.43%, MgCl2 0.133 M, ionic strength 0.4 M): Slightly cloudy, thick, | Observation ([1]; KLD12 1.43%, MgCl2 0.15 M, ionic strength 0.45 M): Slightly cloudy, brittle gel | Observation ([1]; KLD12 1.43%, NaCl 0.15 M, ionic strength 0.15 M): Clear, thick, stiffer gel | Observation ([1]; KLD12 1.44%, CaCl2 0.117 M, ionic strength 0.35 M): Clear, thick, stiffer gel | Observation ([1]; KLD12 1.44%, MgCl2 0.117 M, ionic strength 0.35 M): Clear, thick, stiffer gel | Observation ([1]; KLD12 1.45%, CaCl2 0.1 M, ionic strength 0.3 M): Clear, thick, stiffer gel | Observation ([1]; KLD12 1.45%, KCl 0.1 M, ionic strength 0.1 M): Clear, thick, stiffer gel | Observation ([1]; KLD12 1.45%, MgCl2 0.1 M, ionic strength 0.3 M): Clear, thick, stiffer gel | Observation ([1]; KLD12 1.45%, NaCl 0.1 M, ionic strength 0.1 M): Clear, thick, stiffer gel | Observation ([1]; KLD12 1.46%, CaCl2 0.083 M, ionic strength 0.25 M): Clear, thick, stiffer gel | Observation ([1]; KLD12 1.46%, MgCl2 0.083 M, ionic strength 0.25 M): Clear, thick, stiffer gel | Observation ([1]; KLD12 1.47%, CaCl2 0.067 M, ionic strength 0.2 M): Clear, thick, stiffer gel | Observation ([1]; KLD12 1.47%, MgCl2 0.067 M, ionic strength 0.2 M): Clear, thick, stiffer gel | Observation ([1]; KLD12 1.48%, CaCl2 0.05 M, ionic strength 0.15 M): Clear, thick, stiffer gel | Observation ([1]; KLD12 1.48%, KCl 0.05 M, ionic strength 0.5 M): Clear, thick, stiffer gel | Observation ([1]; KLD12 1.48%, MgCl2 0.05 M, ionic strength 0.15 M): Clear, thick, stiffer gel | Observation ([1]; KLD12 1.48%, NaCl 0.05 M, ionic strength 0.5 M): Clear, thick, stiffer gel | Observation ([1]; KLD12 1.5%, CaCl2 0 M, ionic strength 0 M): Clear, thick gel | Observation ([1]; KLD12 1.5%, KCl 0 M, ionic strength 0 M): Clear, thick gel | Observation ([1]; KLD12 1.5%, MgCl2 0 M, ionic strength 0 M): Clear, thick gel | Observation ([1]; KLD12 1.5%, NaCl 0 M, ionic strength 0 M): Clear, thick gel | Ionic strength range that did not noticeably change the opacity of compositions ([1]; approximately, depending on salt identities): 0.25˜0.35 M | Critical ion strength (above it compositions began phase separation) ([1]; from visual observations of Tables 7-9): 0.3 M | Critical ionic strength (when the composition becomes cloudy) ([1]; range over salts): 0.3˜0.4 M | Conc. at cloud point ([1]; salt CaCl2): 0.117~0.133 M | Ionic strength at cloud point ([1]; salt CaCl2): 0.35~0.4 M | Conc. at cloud point ([1]; salt KCl): 0.25~0.3 M | Ionic strength at cloud point ([1]; salt KCl): 0.25~0.3 M | Conc. at cloud point ([1]; salt MgCl2): 0.117~0.133 M | Ionic strength at cloud point ([1]; salt MgCl2): 0.35~0.4 M | Conc. at cloud point ([1]; salt NaCl): 0.25~0.3 M | Ionic strength at cloud point ([1]; salt NaCl): 0.25~0.3 M | Loss Modulus (G″) ([2]; Conc. 1%): 25 Pa | Storage Modulus (G′) ([2]; Conc. 1%): 140 Pa | Max. Viscosity (max η′) ([2]; Conc. 1%): 2.0 Pa · s | Yield Stress ([2]; Conc. 1%): 25.1 Pa | Loss Modulus (G″) ([2]; Conc. 1.5%): 46 Pa | Storage Modulus (G′) ([2]; Conc. 1.5%): 292 Pa | Max. Viscosity (max η′) ([2]; Conc. 1.5%): 7.1 Pa · s | Yield Stress ([2]; Conc. 1.5%): 39.8 Pa | Loss Modulus (G″) ([2]; Conc. 2%): 63 Pa | Storage Modulus (G′) ([2]; Conc. 2%): 573 Pa | Max. Viscosity (max η′) ([2]; Conc. 2%): 11.0 Pa · s | Yield Stress ([2]; Conc. 2%): 79.4 Pa | Loss Modulus (G″) ([2]; Conc. 2.5%): 93 Pa | Storage Modulus (G′) ([2]; Conc. 2.5%): 846 Pa | Max. Viscosity (max η′) ([2]; Conc. 2.5%): 19.0 Pa · s | Yield Stress ([2]; Conc. 2.5%): 100 Pa | Observation ([3]; 0.1N NaOH 0 μL/mL, Conc. 2.5%, pH 2.2 (RADA16), 1.8 (IEIK13), 2.1 (KLD12)): Clear, thick gel | Observation ([3]; 0.1N NaOH 50 μL/mL, Conc. 2.38%, pH 2.3 (RADA16), 2.1 (IEIK13), 2.4 (KLD12)): Clear, thick gel | Observation ([3]; 0.1N NaOH 100 μL/mL, Conc. 2.27%, pH 2.4 (RADA16), 2.2 (IEIK13), 2.6 (KLD12)): Clear, thick gel | Observation ([3]; 0.1N NaOH 150 μL/mL, Conc. 2.17%, pH 2.7 (RADA16), 2.7 (IEIK13), 2.9 (KLD12)): Clear, thick and stiffer gel | Observation ([3]; 0.1N NaOH 200 μL/mL, Conc. 2.08%, pH 2.9 (RADA16), 3.0 (IEIK13), 3.3 (KLD12)): Clear, thick and stiffer gel | Observation ([3]; 0.1N NaOH 225 μL/mL, Conc. 2.04%, pH 3.6 (KLD12)): Clear, thick and stiffer gel | Observation ([3]; 0.1N NaOH 250 μL/mL, Conc. 2.0%, pH 3.2 (RADA16), 3.3 (IEIK13), 4.0 (KLD12)): Slightly cloudy, brittle gel | Observation ([3]; 0.1N NaOH 300 μL/mL, Conc. 1.92%, pH 3.6 (RADA16), 4.0 (IEIK13), 4.7 (KLD12)): Cloudy, brittle gel | Observation ([3]; 0.1N NaOH 350 μL/mL, Conc. 1.85%, pH 4.5 (RADA16), 4.5 (IEIK13), 5.2 (KLD12)): Cloudy, phase-separated | Peptide composition pH ([3]; 0.1N NaOH added in 2.5% composition 0 μL/mL, Conc. 2.5%): 2.1 | Peptide composition pH ([3]; 0.1N NaOH added in 2.5% composition 50 μL/mL, Conc. 2.38%): 2.4 | Peptide composition pH ([3]; 0.1N NaOH added in 2.5% composition 100 μL/mL, Conc. 2.27%): 2.6 | Peptide composition pH ([3]; 0.1N NaOH added in 2.5% composition 150 μL/mL, Conc. 2.17%): 2.9 | Peptide composition pH ([3]; 0.1N NaOH added in 2.5% composition 200 μL/mL, Conc. 2.08%): 3.3 | Peptide composition pH ([3]; 0.1N NaOH added in 2.5% composition 225 μL/mL, Conc. 2.04%): 3.6 | Peptide composition pH ([3]; 0.1N NaOH added in 2.5% composition 250 μL/mL, Conc. 2.0%): 4.0 | Peptide composition pH ([3]; 0.1N NaOH added in 2.5% composition 300 μL/mL, Conc. 1.92%): 4.7 | Peptide composition pH ([3]; 0.1N NaOH added in 2.5% composition 350 μL/mL, Conc. 1.85%): 5.2 | Observation ([3]; pH 7.0, NaOH volume and conc. not given): Cloudy, phase-separated | pH level at which peptide compositions began phase separation (becoming cloudy) ([3]; pH adjusted with 0.1 N NaOH): higher than 3.5 | Gel formation (success or failure of gelation) [4]: gelled at all concentrations
